# Assay results reported in article PMC12136788.
# The list shows a part of the results.
# T1: UNK ZnF1-6 (called full-length) (human, UniProt Q9C0B0 30-357)
# T1 sequence: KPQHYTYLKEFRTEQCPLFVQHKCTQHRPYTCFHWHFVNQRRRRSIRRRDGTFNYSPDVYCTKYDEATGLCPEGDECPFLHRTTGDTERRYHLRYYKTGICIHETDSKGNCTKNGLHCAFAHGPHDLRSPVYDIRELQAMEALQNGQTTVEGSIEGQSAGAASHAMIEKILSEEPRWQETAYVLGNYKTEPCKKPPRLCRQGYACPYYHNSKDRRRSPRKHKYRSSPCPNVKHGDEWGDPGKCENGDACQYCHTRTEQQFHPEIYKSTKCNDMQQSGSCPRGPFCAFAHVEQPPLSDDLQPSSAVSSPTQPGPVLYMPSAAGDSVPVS
# B1: chr10:75150949:75151073:+|CDS|ENSG00000156671|unk|FALSE|unique (ssRNA)
# RNA: GGGAGUUCUACAGUCCGACGAUCUGUUCGAAGAUUGGACCCAGAAUACUGGAAGACUAUACUGAGUUGUAUAUAUGUUUUUAUAGUAUUUGGAUUUACAUCUUUCAUUAUGGUUAUAGUCCAUGAGCGAGUGCCUGACAUGCACAACAGAGGAUUGAGCAUCA
# B2: chr2:69942770:69942871:+|3pUTR|ENSG00000059728|unk|FALSE|unique (ssRNA)
# RNA: GGGAGUUCUACAGUCCGACGAUCUGUUUCCAGAUGUUUCUUUAUGUAAAUAUGACGCCAAUGUAAAUCCUGUGUCAAGAUCAUAGAGAAUGGUGCUUUUUACUACAGUUAGCACAUGCAUUUUUAGAAACUACUACAUGUUUUCAACAGAGGAUUGAGCAUCA
# B3: chr14:95709946:95710881:-|three_prime_utr|ENSG00000100721|control|control|control (ssRNA)
# RNA: GGGAGUUCUACAGUCCGACGAUCUCUGGGAGGAAUGGACAGACAGAGGAUGAGCUCUACCCAGGGCCUGCAGGACCUGCCUGUAGCCCACUCUGCUCGCCUUAGCACUACCACUCCUGCCAAGGAGGAUUCCAUUUGGCAGAGCAACAGAGGAUUGAGCAUCA
# B4: chr5:111496093:111496242:-|3pUTR|ENSG00000164211|unk|FALSE|unique (ssRNA)
# RNA: GGGAGUUCUACAGUCCGACGAUCUUUACAUGUAUAGUUAAAUAUUAAAAUUCAUCUCUUGCAGUUCAAUAAAAGCUAUAGUAUAGAUUUUAUUUUUAAGAAGUUUAUAUAAUUCUUUUGUGAACCAAUAUGUAAAACUAGAAUCAACAGAGGAUUGAGCAUCA
# B5: chr16:21983864:21984660:-|three_prime_utr|ENSG00000155714|control|control|control (ssRNA)
# RNA: GGGAGUUCUACAGUCCGACGAUCAAAGAAAAUUGAGCUGGCAAAAGAUGAAUCUUUCACAAGCAGUGAUGAUAAUGAAAAUGUAGAUUUAGAUAAAAGACUUCAAUAUUAUAGAUAUCCGUGGUCAACUGUGCAUCACCCUGCCAACAGAGGAUUGAGCAUCA
# B6: ENSG00000125170:stop:overlap|stop_codon|ENSG00000125170|stop_codon|NA|stop_codon (ssRNA)
# RNA: GGGAGUUCUACAGUCCGACGAUCAGCGGCUGGAGAAGUAUCCAGAUGAGAAGUCGGUGUGCCUCCGGGGCUGCCCCAAGAGCUAGAGGCAGAGGAGUGGUACAAGACACUAUCUGUGGAGUGUCUGGGGUCCCGCCUCAACGACAACAGAGGAUUGAGCAUCA
# B7: chr1:90030187:90030288:+|3pUTR|ENSG00000162664|unk|total|mutant (ssRNA)
# RNA: GGGAGUUCUACAGUCCGACGAUCACCCAGUUCAAGUCAUGAUAAUUUCUUGUUAACUAAUCUUGAUUCCACCCUUACCAUGACCGAUUCAGUUUUCUACACAAGUAUAAGCUUUUAAAAAUGUAAUUCAGAUGAUGUUAAUCUCAACAGAGGAUUGAGCAUCA
# B8: chr12:85803847:85803948:-|3pUTR|ENSG00000198774|unk|FALSE|unique (ssRNA)
# RNA: GGGAGUUCUACAGUCCGACGAUCCCAAACCCAUGUUCAUUCACUGAGUGAGGUAUAGUGUGGGUUACAGAGAAAAUCAGUCAUAGUGUUAUUUGUUUAUGUCCUAUCUACAAAAGUUGCAAUGAUGGAAUUUGGAACCCUUCUCAACAGAGGAUUGAGCAUCA
# B9: chr4:57023444:57023561:+|CDS|ENSG00000047315|unk|FALSE|unique (ssRNA)
# RNA: GGGAGUUCUACAGUCCGACGAUCGAAUUGGAGAGCACCAAUAGACGCUAUACCAAGAGAGACUGUAGCACUUUUCUCAGAACUAGCGAGACGGGCAUUGUGGAUCAGGUUAUGGUAACUCUCAAUCAGGAAGGAUAUAAAUUUCAACAGAGGAUUGAGCAUCA
# B10: chr12:1780521:1780622:+|CDS|ENSG00000006831|msi1|FALSE|bound_elsewhere (ssRNA)
# RNA: GGGAGUUCUACAGUCCGACGAUCCCCAAAUAUCUCCUUUGUGGCCCCUCUGCAAGAGAAGGUGGUCUUUGGAUUAUUUUUCUUAGGAGCCAUUCUCUGCCUUUCUUUUUCAUGGCUCUUCCACACAGUCUACUGCCACUCAGACAACAGAGGAUUGAGCAUCA
# B11: chr19:57593639:57593745:+|3pUTR|ENSG00000171649|unk|FALSE|unique (ssRNA)
# RNA: GGGAGUUCUACAGUCCGACGAUCUGAACCUUCUUAUUUCUCUACAUUCUUGCCAUACUUGGUAUGGUUAGUCUUUUUAAUUUUAGUUGUUUUAAUAGCUGUAUAAUAGCAUCUGUCUGUGAUUUUAUUGCAUUUUUCUGGUAUCAACAGAGGAUUGAGCAUCA
# B12: chr5:149977868:149977977:+|CDS|ENSG00000155850|unk|total|mutant (ssRNA)
# RNA: GGGAGUUCUACAGUCCGACGAUCUAUUAAAAAGCUGCAGAAGAAUUGCCAGUGCAGUCCAGCCAAAGCCAAAAAUAUGAUUUCCGGUUUCCUUCCUGUUUUGCAGUGGCUCCCAAAAUACGACCUAAAGAAAAACAUUUCCGGCAACAGAGGAUUGAGCAUCA
# B13: chr12:132079871:132079972:+|3pUTR|ENSG00000183495|msi1|FALSE|bound_elsewhere (ssRNA)
# RNA: GGGAGUUCUACAGUCCGACGAUCAGAUGCUACCGUUGACCUGAGUUAAAUUCAUUUAGUCGUGUACGUAAAAACUCUCCUUUUAGUGUGUUAUUUUCUUGGCCUUCCCUUUUAAAGGUUAAAGUUUCUAACCUAAGAAUUAAGCAACAGAGGAUUGAGCAUCA
# B14: chr14:52327222:52327364:+|CDS|ENSG00000125384|unk|FALSE|unique (ssRNA)
# RNA: GGGAGUUCUACAGUCCGACGAUCAUUUUUGCAUAUAUGAAUGAAACCUCUUCCCGAAAGGAAAAAUGGGACCUCCAAGCUCUUAGGUUUUUAUCAAUUAAUUCAAUAAUUGACCCUUGGGUCUUUGCCAUCCUUAGGCCUCCUCAACAGAGGAUUGAGCAUCA
# Biological target: T1, UNK ZnF1-6 (called full-length)
# Assay: nsRBNS (natural sequence RNA bind-n-seq); RBNS binding buffer (assumed for nsRBNS): 25 mM Tris pH 7.5, 150 mM KCl, 3 mM MgCl2, 0.01% Triton X-100, 500 ug/ml BSA, 20 U/ml SUPERase-In, 4 C; UNK is unkempt and MSI1 is Musashi-1; names of the RNAs are library labels; protein concentration not given here; high values mean tight binding
row,Binder,binding signal
1,B1,0.389 enrichment R
2,B2,0.538 enrichment R
3,B3,0.843 enrichment R
4,B4,2.13 enrichment R
5,B5,2.22 enrichment R
6,B6,1.01 enrichment R
7,B7,0.405 enrichment R
8,B8,0.351 enrichment R
9,B9,2.23 enrichment R
10,B10,0.583 enrichment R
11,B11,122 enrichment R
12,B12,0.398 enrichment R
13,B13,3.82 enrichment R
14,B14,4.52 enrichment R
